# From the supplement of paper PMC10338343
# ± gives the standard deviation. Over roughly 5,500 sequences, “pre-steady-state target cleavage rate” has its median near 0.1; the highest 2% begin near 0.64. Only a part is listed here, and it is no random draw.
# Test system: MIWI (PIWIL1) piRISC loaded with piRNA #2 (30 nt)
# Assay: pre-steady-state target cleavage rate (min^-1); MIWI and MILI are mouse PIWI proteins and EfPiwi is from a freshwater sponge; tags in brackets are library labels; higher = faster piRNA-guided slicing of the target
# Details: guide: piRNA #2 5'p-UUAGGUAACCCAGUAGAUCCAGAGGAAUUC; auxiliary factor: 500 nM mouse GTSF1
# Procedure, shortened: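 The method was Cleave-'n-Seq, in which uncleaved targets from a transcribed, DNA-blocked target RNA library were sequenced after exposure to active affinity-purified piRISC carrying one synthetic guide, with or without GTSF1 partner protein. Reactions contained 0.1 nM library, 1 nM piRISC and, where present, 500 nM GTSF1 in HEPES–potassium acetate buffer at 33 °C for 0–8 or 0–960 min. Reads were normalised to depth and to weakly complementary targets, three trials were pooled, and k3 was capped at 0.0001 min^-1. The pre-steady-state cleavage rate came from a burst-and-steady-state fit.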
row,Sequence,pre-steady-state target cleavage rate
1,CUAUUCCUCUGGAACUACUGGGUUACCAAA,0.212 ± 0.044
2,CUUUUCCUCUGCAUCUACUGGGUUACCUAA,0.404 ± 0.036
3,CUUAAGGUCUGGAUCUACAGGGUAACCUAA,0.0779 ± 0.015
4,CUAUUCCUCUGGAUGUACUGGCUUACCUAA,0.119 ± 0.025
5,CUUAAGGAGAGGAUCUACUGGGUUUACCUAA,0.00683 ± 0.0028
6,GAAUUCCUCUGGAUCAACUGCGUUACCUAA,0.439 ± 0.053
7,CUAUACCUCUGGAUCUACUGCGUUACCUAA,0.732 ± 0.066
8,CUUAAGGUCUGGAUCUACUGGGUUUCCAAA,0.015 ± 0.0057
9,CAAUUCCUCUGGAUCUACUGGGUUACUAA,0.31 ± 0.088
10,CUAUUGCUCUCGAUCUACUGGGUUACCUAA,0.386 ± 0.038
11,CUUUUCGUCUGGUUCUACUGGGUUACCUAA,0.406 ± 0.047
12,CUUAACCUCUGGUUGUACUGGGUUACCUAA,0.493 ± 0.034
13,CAAUACCUCUGGAUCUACUGGCUUACCUAA,0.0941 ± 0.017
14,CUUAACCACUGGAUCUACUGGCUUACCUAA,0.0464 ± 0.011
15,CUUAACCUCUGGAUCUGCUGGGUUACCUAA,0.159 ± 0.018
16,CUUUUCCUCUGGAUGUUCUGGGUUACCUAA,0.305 ± 0.031
17,CUAUUCCUCUGGAUCUACUGGCUUACCAAA,0.0709 ± 0.022
18,CUUUUCCUCUCGGAUCUACUGGGUUACCUAA,0.377 ± 0.046
19,CUUAACCACUGGAUCUACUGGGUAACCUAA,0.107 ± 0.015
20,CUUUUCCUGUCGAUCUACUGGGUUACCUAA,0.444 ± 0.033
21,CAAUUCCUCUGGAUCUACUGCGUAACCUAA,0.179 ± 0.05
22,CUUAAGGAGUGGAUCGACUGGGUUACCUAA,0.0173 ± 0.0051
23,CUUAAGGACACCAUCUACUGGGUUACCUAA,0.00335 ± 0.0033
24,CUUAAGCUCAGGAUCUACUGGGUUUCCUAA,0.0918 ± 0.015

row,Sequence,pre-steady-state target cleavage rate
1,CUUAAGGAGAGGAUCUACUGGAUUACCUAA,0.0161 ± 0.0083
2,CUUAAGCUCUGGAUCUACUGGGUAAGCUAA,0.0314 ± 0.0056
3,CUAUUCCUCUGGAUCUACUCGGUUACCAAA,0.0838 ± 0.028
4,CUUAAGCUCUCGAUCUACUGCGUUACCUAA,0.508 ± 0.049
5,CUUAACCUCUGGACUACUGGGUUACCUAA,0.12 ± 0.013
6,CUUAACCUCUGGAACUACUGGGUUACCUAA,0.37 ± 0.035
7,GAAUUCCUCUGGAUCUACUGGGAUACCUAA,0.164 ± 0.027
8,CUUAAGGAGUGGAUCUACACGGUUACCUAA,0.00547 ± 0.0032
9,CUAUUCCUGUGGAUCAACUGGGUUACCUAA,0.377 ± 0.038
10,CUUAAGCUCUCCAUCUACUGGGUUACCUAA,0.266 ± 0.031
11,CUUAUCCUCAGGUUCUACUGGGUUACCUAA,0.389 ± 0.043
12,CUUAAGGAGACCUUUCUACUGGGUUACCUAA,0.00338 ± 0.003
13,CUAUUCCUCUGGUUCUAGUGGGUUACCUAA,0.24 ± 0.024
14,CUUUUCCUCUGCAUCUUCUGGGUUACCUAA,0.258 ± 0.025
15,CUUUUCCUCAGGAUCAACUGGGUUACCUAA,0.343 ± 0.036
16,CUUAAGCUCUGGAUUACUGGGUUACCUAA,0.128 ± 0.014
17,CUUAAGCUCUGGAUCUACUGGGUUUCGUAA,0.0853 ± 0.012
18,CUUAAGGUCUGGAUCUACUGGGUUACCCAA,0.0201 ± 0.0072
19,CUUAAGCUCUGGAUGAUCUGGGUUACCUAA,0.00889 ± 0.0027
20,GAAUUCCUCAGGAUCUACUGGGAUACCUAA,0.28 ± 0.058
21,CUUUUCCACUGGAACUACUGGGUUACCUAA,0.288 ± 0.03
22,CUUUUCCUCUGGAUGUACAGGGUUACCUAA,0.427 ± 0.026
23,CAAUACCUCUGCAUCUACUGGGUUACCUAA,0.412 ± 0.039
24,CUUAAGGAGAGGAUUCUACUGGGUUACCUAA,0.00445 ± 0.0033

row,Sequence,pre-steady-state target cleavage rate
1,CUAUUCCUGUGGAUCUACUGGGUUACCAAA,0.233 ± 0.041
2,CAAUUCCUCUGGAACUACUGGGUUUCCUAA,0.348 ± 0.1
3,CUUAUCCUCUGGAUCUACUCGGUAACCUAA,0.0145 ± 0.011
4,CUAAUCCUCUGGAUCUACUGGGUUACCUUA,0.396 ± 0.069
5,CUUAUCCUCUGGAUCUUCUGCGUUACCUAA,0.231 ± 0.037
6,GAAUUCCUCUCGAUCAACUGGGUUACCUAA,0.63 ± 0.051
7,CUUAACCUCUGGAUCUACUGGGGUACCUAA,0.0617 ± 0.014
8,GAAUUCCUCUGGAUCUACACCGUUACCUAA,0.0862 ± 0.0079
9,CUAUACCUCUGGAUCUAGUGGGUUACCUAA,0.225 ± 0.043
10,CUUUUCCUCUGGAUCUACUGGGUUUCCAAA,0.151 ± 0.046
11,CUAUUCCUCUGGGUCUACUGGGUUACCUAA,0.376 ± 0.029
12,CAAUUCCUCUGGACUCUACUGGGUUACCUAA,0.317 ± 0.053
13,CUUAUGCUCUGCAUCUACUGGGUUACCUAA,0.366 ± 0.063
14,CUUAAGCUCUGGAUCUACUGGGCUACCUAA,0.0738 ± 0.01
15,CAAUUGCUCUGGAUCUACUCGGUUACCUAA,0.0591 ± 0.016
16,CUUAAGGAGAGGAUCUACUGGGUUACCUAG [g2:g20:cont:t1G],0.0105 ± 0.0044
17,CUUAAGGUCUGGAUCUACUGAGUUACCUAA,0.467 ± 0.063
18,CUUAAGGAGACCUAGAUCAGCGUUACCUAA,0.00423 ± 0.0029
19,CUUAAGGAGUGGAUGUACUGGCUUACCUAA,0.0127 ± 0.012
20,CUUAACCAGAGGAUCUACUGGGUUACCUAA,0.0384 ± 0.0072
21,CUUAAGGAGUGGAUCUACUGGGUAACCUAA,0.0147 ± 0.009
22,CUUAACGUCUGCAUCUACUGGGUUACCUAA,0.315 ± 0.027
23,GAAAAGCUCUGGAUCUACUGGGUUACCUAA,0.0282 ± 0.012
24,CUUAUCCUCUGGGUCUACUGGGUUACCUAA,0.411 ± 0.037
